Reference: the supplement of paper PMC9334596
Values joined by “and” are separate entries in the source; they are usually repeats but may differ in a detail not shown here. Equal values may be shown once. Whole data set: some 5,300 compounds, median “PER2::LUC luminescence relative to vehicle control” near 0.96, cut for the highest 2% near 1.3. This is one part of the list.

Tested on: mPer2Luc MEF
Assay: PER2::LUC luminescence relative to vehicle control (fold of vehicle); higher = higher PER2::LUC reporter signal
Conditions: 10 µM
Procedure, shortened: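 In 384-well plates, ~3000 mPer2Luc reporter mouse embryonic fibroblasts per well were cultured in DMEM with 10% FBS at 37 °C and 5% CO2 for 48 h before compounds from commercial libraries were added at 10 μM. ONE-Glo luciferase readings were taken 24 h and 30 h after treatment. Each value is PER2::LUC luminescence given as fold of vehicle control.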

OCC(S)CS (stereo not given)
PER2::LUC luminescence (time after treatment 24 h): 1.22
PER2::LUC luminescence (time after treatment 30 h): 1.08

O=C(c1cccnc1)N1CCOCC1
PER2::LUC luminescence (time after treatment 24 h): 1.06
PER2::LUC luminescence (time after treatment 30 h): 1.01

O=c1c2ccccc2[nH]c(=S)n1CCN1CCC(=C(c2ccc(F)cc2)c2ccc(F)cc2)CC1
PER2::LUC luminescence (time after treatment 24 h): 0.97
PER2::LUC luminescence (time after treatment 30 h): 0.842

CC(=O)NC[C@H]1CN(c2ccc(N3CCOCC3)c(F)c2)C(=O)O1
PER2::LUC luminescence (time after treatment 24 h): 1.02
PER2::LUC luminescence (time after treatment 30 h): 1.18

NC(=O)c1cc[n+](CC2=C(C(=O)[O-])N3C(=O)[C@@H](NC(=O)Cc4cccs4)[C@H]3SC2)cc1
PER2::LUC luminescence (time after treatment 24 h): 1.12 and 0.389
PER2::LUC luminescence (time after treatment 30 h): 0.83 and 0.69

Cc1nccn1CC1CCc2c(c3ccccc3n2C)C1=O (stereo not given)
PER2::LUC luminescence (time after treatment 24 h): 0.971 and 0.984
PER2::LUC luminescence (time after treatment 30 h): 1.03 and 0.914

CC(=O)NCCCCCCNC(C)=O
PER2::LUC luminescence (time after treatment 24 h): 1.17
PER2::LUC luminescence (time after treatment 30 h): 1.08

O=C1C(O)=C(O)C(=O)C(O)=C1O
PER2::LUC luminescence (time after treatment 24 h): 0.984 and 0.949
PER2::LUC luminescence (time after treatment 30 h): 0.948 and 0.843

CC(C)Cc1ccc([C@@H](C)C(=O)NS(C)(=O)=O)cc1
PER2::LUC luminescence (time after treatment 24 h): 0.983 and 1.09
PER2::LUC luminescence (time after treatment 30 h): 0.985 and 1.06

COc1ccc2c(c1)c(CC(=O)OCC(=O)O)c(C)n2C(=O)c1ccc(Cl)cc1
PER2::LUC luminescence (time after treatment 24 h): 0.952
PER2::LUC luminescence (time after treatment 30 h): 1.04

Cc1c2oc3c(C)ccc(C(=O)N[C@@H]4C(=O)N[C@H](C(C)C)C(=O)N5CCC[C@H]5C(=O)N(C)CC(=O)N(C)[C@@H](C(C)C)C(=O)O[C@@H]4C)c3nc-2c(C(=O)N[C@@H]2C(=O)N[C@H](C(C)C)C(=O)N3CCC[C@H]3C(=O)N(C)CC(=O)N(C)[C@@H](C(C)C)C(=O)O[C@@H]2C)c(N)c1=O
PER2::LUC luminescence (time after treatment 24 h): 1.22
PER2::LUC luminescence (time after treatment 30 h): 1.09

O=C(O)CCCC[C@@H]1CCSS1
PER2::LUC luminescence (time after treatment 24 h): 1.03
PER2::LUC luminescence (time after treatment 30 h): 1.21

COc1ccc(-c2nc3cc(F)ccc3s2)cc1OC
PER2::LUC luminescence (time after treatment 24 h): 1.5
PER2::LUC luminescence (time after treatment 30 h): 1.52

Cc1cccc(Nc2ccncc2S(=O)(=O)NC(=O)NC(C)C)c1
PER2::LUC luminescence (time after treatment 24 h): 1.03 and 0.936
PER2::LUC luminescence (time after treatment 30 h): 0.953 and 0.992

CCN1CCN(Cc2ccc(NC(=O)c3ccc(C)c(/C=C/c4cnc5[nH]ccc5c4OC)c3)cc2C(F)(F)F)CC1
PER2::LUC luminescence (time after treatment 24 h): 0.349
PER2::LUC luminescence (time after treatment 30 h): 0.394

Cn1nnc(-c2ccc(-c3ccc(N4C[C@H](CO)OC4=O)cc3F)cn2)n1
PER2::LUC luminescence (time after treatment 24 h): 1.39 and 1.4
PER2::LUC luminescence (time after treatment 30 h): 1.56 and 1.53

CC(=O)O[C@@H]1CC[C@@]2(C)C(C[C@@H](OC(C)=O)[C@@]3(C)C4=CC(=O)O[C@@H](c5ccoc5)[C@]4(C)CCC23)C1(C)C (stereo not given in full)
PER2::LUC luminescence (time after treatment 24 h): 0.996
PER2::LUC luminescence (time after treatment 30 h): 1.04

COc1cc2c(cc1OC)-c1c/c(=N\c3c(C)cc(C)cc3C)n(C)c(=O)n1CC2
PER2::LUC luminescence (time after treatment 24 h): 0.0833
PER2::LUC luminescence (time after treatment 30 h): 0.27

FC(F)(F)Oc1ccc(-c2ccc3nnc(C(F)(F)F)n3c2)cc1
PER2::LUC luminescence (time after treatment 24 h): 1
PER2::LUC luminescence (time after treatment 30 h): 0.974

O=C(c1ccc(F)cc1)N1CCC[C@H](c2nc(-c3ccc(F)cc3)no2)C1
PER2::LUC luminescence (time after treatment 24 h): 0.994
PER2::LUC luminescence (time after treatment 30 h): 0.927

C=C(C)[C@H]1COc2cc3oc(=O)ccc3cc2O1
PER2::LUC luminescence (time after treatment 24 h): 1.09
PER2::LUC luminescence (time after treatment 30 h): 1.13

CC(C)CCC[C@@H](C)[C@H]1CC[C@H]2[C@@H]3CC[C@H]4CC(=O)CC[C@]4(C)[C@H]3CC[C@]12C
PER2::LUC luminescence (time after treatment 24 h): 1
PER2::LUC luminescence (time after treatment 30 h): 0.915

O=C1N=C(O)NC1(c1ccccc1)c1ccccc1
PER2::LUC luminescence (time after treatment 24 h): 1.29
PER2::LUC luminescence (time after treatment 30 h): 1.01

O=C1Nc2ccc(I)cc2/C1=C/c1cc(Br)c(O)c(Br)c1
PER2::LUC luminescence (time after treatment 24 h): 1.15
PER2::LUC luminescence (time after treatment 30 h): 0.992

CN(C)c1cc(NC(=O)CNC(C)(C)C)c(O)c2c1C[C@H]1C[C@H]3[C@H](N(C)C)C(O)=C(C(N)=O)C(=O)[C@@]3(O)C(O)=C1C2=O
PER2::LUC luminescence (time after treatment 24 h): 0.801
PER2::LUC luminescence (time after treatment 30 h): 0.935

CCNc1nc(Nc2cc(F)c(C(=O)N3CCOCC3)cc2OC)ncc1C(F)(F)F
PER2::LUC luminescence (time after treatment 24 h): 0.535
PER2::LUC luminescence (time after treatment 30 h): 0.538

CCNC(=O)[C@@H]1CCCN1C(=O)[C@H](CCCNC(=N)N)NC(=O)[C@H](CC(C)C)NC(=O)[C@@H](CC(C)C)NC(=O)[C@H](Cc1ccc(O)cc1)NC(=O)[C@H](CO)NC(=O)[C@H](Cc1c[nH]c2ccccc12)NC(=O)[C@H](Cc1c[nH]cn1)NC(=O)[C@@H]1CCC(=O)N1
PER2::LUC luminescence (time after treatment 24 h): 0.987
PER2::LUC luminescence (time after treatment 30 h): 0.922

Nc1ncnc2c1c(-c1ccc(Oc3ccccc3)cc1)nn2[C@@H]1CCCNC1
PER2::LUC luminescence (time after treatment 24 h): 0.544
PER2::LUC luminescence (time after treatment 30 h): 0.62

CC[N+](CC)(CC(=O)Nc1c(C)cccc1C)Cc1ccccc1
PER2::LUC luminescence (time after treatment 24 h): 0.988
PER2::LUC luminescence (time after treatment 30 h): 0.901

COc1cc(NS(=O)(=O)c2ccc(N)cc2)nc(OC)n1
PER2::LUC luminescence (time after treatment 24 h): 1.16
PER2::LUC luminescence (time after treatment 30 h): 0.967

CC1(C)O[C@@H]2[C@@H](CO[C@@]3(COS(N)(=O)=O)OC(C)(C)O[C@@H]23)O1
PER2::LUC luminescence (time after treatment 24 h): 0.995
PER2::LUC luminescence (time after treatment 30 h): 1

COc1cc2ccc(=O)oc2cc1O
PER2::LUC luminescence (time after treatment 24 h): 1.02
PER2::LUC luminescence (time after treatment 30 h): 1.04

CC(C)Cn1cnc2c(N)nc3ccccc3c21
PER2::LUC luminescence (time after treatment 24 h): 0.976
PER2::LUC luminescence (time after treatment 30 h): 0.934

COc1cc2oc3cc(OC)c(OC)c(CC=C(C)C)c3c(=O)c2c(O)c1CC=C(C)C
PER2::LUC luminescence (time after treatment 24 h): 0.964
PER2::LUC luminescence (time after treatment 30 h): 0.905

CN(C)c1ccc(-c2nc3ncc(Cl)c(N4CCN(CC(=O)Nc5nccs5)CC4)c3[nH]2)cc1
PER2::LUC luminescence (time after treatment 24 h): 0.865
PER2::LUC luminescence (time after treatment 30 h): 0.764

CC(=O)OCC(=O)[C@@]1(O)[C@H](OC(C)=O)C[C@H]2[C@@H]3CCC4=CC(=O)C=C[C@]4(C)[C@@]3(F)[C@@H](O)C[C@@]21C
PER2::LUC luminescence (time after treatment 24 h): 0.822
PER2::LUC luminescence (time after treatment 30 h): 1.16

CON(C)C(=O)N1N=C(c2cc(F)ccc2F)S[C@@]1(CCCN)c1ccccc1
PER2::LUC luminescence (time after treatment 24 h): 0.706
PER2::LUC luminescence (time after treatment 30 h): 0.742

COc1cc2ncnc(Nc3cccc(I)c3)c2cc1OC
PER2::LUC luminescence (time after treatment 24 h): 0.808
PER2::LUC luminescence (time after treatment 30 h): 0.774

CN[C@H](CNC(=O)N1CCC[C@@H]([C@@H](OCCNC(=O)OC)c2cccc(Cl)c2)C1)C[C@H]1CCCOC1
PER2::LUC luminescence (time after treatment 24 h): 1
PER2::LUC luminescence (time after treatment 30 h): 0.979

NC1=NCC2c3ccccc3Cc3ccccc3N12 (stereo not given)
PER2::LUC luminescence (time after treatment 24 h): 1.01
PER2::LUC luminescence (time after treatment 30 h): 1.02

NC(=O)N1c2ccccc2CC(=O)c2ccccc21
PER2::LUC luminescence (time after treatment 24 h): 0.926 and 0.8
PER2::LUC luminescence (time after treatment 30 h): 1.01 and 1.04

Oc1nc(-c2ccc(C(F)(F)F)cc2)nc2c1CSCC2
PER2::LUC luminescence (time after treatment 24 h): 1.18
PER2::LUC luminescence (time after treatment 30 h): 1.18

Cc1nc2ccc(NC(=O)Nc3ccnc4cccnc34)cc2o1
PER2::LUC luminescence (time after treatment 24 h): 0.937
PER2::LUC luminescence (time after treatment 30 h): 0.94

CC1(C)S[C@@H]2[C@H](NC(=O)COc3ccccc3)C(=O)N2[C@H]1C(=O)O
PER2::LUC luminescence (time after treatment 24 h): 1.09
PER2::LUC luminescence (time after treatment 30 h): 1.56

CCCC(=O)O[C@]1(C(=O)CO)CC[C@H]2[C@@H]3CCC4=CC(=O)CC[C@]4(C)[C@H]3[C@@H](O)C[C@@]21C
PER2::LUC luminescence (time after treatment 24 h): 0.744
PER2::LUC luminescence (time after treatment 30 h): 1.05

CCCCC1(C2CCCC2)Cc2cc(OCC(=O)O)c(Cl)c(Cl)c2C1=O (stereo in doubt)
PER2::LUC luminescence (time after treatment 24 h): 1.15
PER2::LUC luminescence (time after treatment 30 h): 0.876

COc1ccc2c3c1O[C@H]1C[C@@H](O)C=C[C@@]31CCN(C)C2
PER2::LUC luminescence (time after treatment 24 h): 0.974 and 0.913 and 0.857
PER2::LUC luminescence (time after treatment 30 h): 1.05 and 0.99 and 0.959

Cc1cc(F)c(Nc2ncnc3cc(OCc4ccccc4)ccc23)cc1O
PER2::LUC luminescence (time after treatment 24 h): 0.628
PER2::LUC luminescence (time after treatment 30 h): 0.608

O=C(CN1C(=O)C2(CCCC2)NC[C@H]1c1cc(F)cc(F)c1)Nc1ccc2c(c1)C[C@@]1(C2)C(=O)Nc2ncccc21
PER2::LUC luminescence (time after treatment 24 h): 0.973
PER2::LUC luminescence (time after treatment 30 h): 1.02

O=c1[nH]c(=O)n([C@H]2C[C@H](O)[C@@H](CO)O2)cc1C(F)(F)F
PER2::LUC luminescence (time after treatment 24 h): 0.721
PER2::LUC luminescence (time after treatment 30 h): 0.807
